Measurements as given in the supplement of paper PMC11417369.
Some of the results follow.

Test system: PfSIP2 AP2 domain 1 (GST-tagged)
Test: gcPBM binding intensity (ln(normalized median fluorescence intensity)); higher = stronger DNA binding
Procedure, shortened: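 For binding intensity, the highest Masliner-normalised natural-log median intensity across replicate spots of either probe orientation was taken. Protein bound to the array was stained with Alexa488 anti-GST antibody and scanned at 488 nm. The protein, GST-tagged P. falciparum DNA-binding domains from E. coli at about 25 μg on average, had been applied for 1 h to an Agilent 4 × 180k array of primer-extended double-stranded 36-bp intergenic genomic probes and negative controls.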

Row | Sequence | gcPBM binding intensity (ln)
1 | GGAACCATCCAAAAAAAAAAAAAAAATAATAATAAT [CACACA_negctrl_site383] | 6.76
2 | ACATGTACAGAAATTTATATATATATATATATATAT [CACACA_negctrl_site1584] | 9.51
3 | ATTATTATGTATTGCCGTACACATATTATCACAGAA [XGTACX_site3740] | 7.2
4 | TCTTCATATATAATTGTACACACAAAAACGACATTG [CACACA_site8645] | 7.31
5 | TATTATAATTAATATACACACGCTTATATATATATA [CACACA_site75] | 9.05
6 | TATAAATAAACATTTACACACTCTTATAATAAATAT [CACACA_site1679] | 6.76
7 | AACTAATAGTATATTACATGCAAAAGTAAAAGTAAA [TGCATGCA_site411] | 7.24
8 | CTCACAATACTTACATGTACATATTATATATATAAA [XGTACX_site1880] | 7.54
9 | GTTGAAATAAAATTAGTGCATATATAAATATATATA | 8.93
10 | ACTGAAAAAAGAAATACACACATTCTGGATCAGATA [CACACA_site7760] | 6.87
11 | TCATTCTTGTGTTTATGTACACATATTTATATTGTA [XGTACX_site710] | 7.16
12 | TTATCATTTTTGGAATGTACTTACATTAAATATTTA [XGTACX_site4034] | 6.87
13 | TATATGCAAAATGTCACACATGTGATAAATACATAT [CACACA_site4302] | 6.89
14 | ATTTTATTTTTTCACACACACATATATATATATATA [CACACA_site3334] | 9.37
15 | CCCAGGAATATAAAATGTACATAAAAAATACAAATT [XGTACX_site1708] | 7.07
16 | AGTACATTATAGAATACACACCTATACATTTATATA [CACACA_site6391] | 6.91
17 | TTTTTTTTTTTTGGATGTACTTAATGAAAATGTTAC [XGTACX_site8980] | 7.36
18 | TAAGCACAAGCACAAGCACACATTTATATATATATA [CACACA_site883] | 8.95
19 | TCTTTGTATATATGTTCATTTGTAATATATATTCAT [TGCATGCA_negctrl_site467] | 7.18

Row | Sequence | gcPBM binding intensity (ln)
20 | TATTTGTGAAGAAATTGTACTCATATCTACATTTAT [XGTACX_site2245] | 6.96
21 | ATAATAATATAAAAATGTACATATATTTATAATTGT [XGTACX_site3429] | 7.15
22 | TGATTATTTTATATTTGTACACATATCATATAAAAA [XGTACX_site5868] | 7.13
23 | ATGCAAACTAAAAGACGTACAGAAAAGTATCATACT [XGTACX_site8766] | 7.63
24 | ACGTTTTTGAGTAGTACACACACAATAAGGATGGAT [CACACA_site9044] | 7.44
25 | ACATAATATTGAAGAAGTACAAATTTTATTTATTAT [XGTACX_site4113] | 7.01
26 | AATATAATATATATTAGTACATATATATATATATAT [XGTACX_site870] | 9.56
27 | CCTCATATTATAGACACACACAAAAAAAATAAAAAA [CACACA_site180] | 7.25
28 | TCATTATTATATAATTGTACATAATAATTATATCCA [XGTACX_site1801] | 6.95
29 | ATGTATGTGTATATATGTACATAATATATATCTTTT [XGTACX_site8666] | 7.04
30 | AGGTGCAAAAATAAAACATGCAAAAATAAAAATGAA [TGCATGCA_site502] | 9.93
31 | AATAATTAAATAAGAGTGCATGAAACAGGAAATTTC | 8.31
32 | TAATAAAAAATATATACACACAAATAAATAAATAAA [CACACA_site4037] | 7
33 | AATAGTCGTGTGCATACACACCTTAACTATAATATA [CACACA_site6636] | 7.41
34 | AAGAAATAAAGCAAAACATGCACTCGAAAATGTTTT [TGCATGCA_site1014] | 7.85
35 | TTAGCAACTATTACTACACACATTTTTATATAACTT [CACACA_site6762] | 6.86
36 | TATTGTTAAAATGAATAATTAAAACAGTAATGAATA [XGTACX_negctrl_site170] | 6.81
37 | TATATATGTTTTTATGTACACACTTTTAACCTAAGA [CACACA_site1149] | 7.36
38 | ATGTCTAATTTTGATGCACACTTTTGTGCAATTAAA [CACACA_site5589] | 8.91

Row | Sequence | gcPBM binding intensity (ln)
39 | CGCATGCAATGTTAATGTACATATATATATATATGT [XGTACX_site3316] | 8.05
40 | TATTATATTATGTGATGTACATATTTATATAGGCCC [XGTACX_site4746] | 7.26
41 | ATTTATTGACTATTTACACACATATTTATTAAAATA [CACACA_site4980] | 7.22
42 | TACGCTCCCAGACACACACACACACCGATATAATAT [CACACA_site8098] | 7.38
43 | TATTACATACCTTATTGTACAAATTATATATTAAAG [XGTACX_site7334] | 7.31
44 | ACAGTATCTGGTAGCTGTACGAGTCGTAGAGAGTAG [XGTACX_site2041] | 7.55
45 | ATTCAGTTATATAATACACACATATATTGACATTAT [CACACA_site2723] | 7.28
46 | TGTAAGCACATACAAACACACAACATTATTTTTATC [CACACA_site2186] | 6.97
47 | TAGTATAATATGAACACACACACACGCACAAAAAAA [CACACA_site7035] | 7.22
48 | ATCGTTATATAAAAATGTACTTATAAATTGTATACA [XGTACX_site6664] | 7.23
49 | CAACATTTGATAAACACACAGAAGTATAAATATATA [CACACA_site2365] | 6.84
50 | AAAGGAAAAATCCAAGTGCATTATTATTTTCACAAA [GTGCAC_site9995] | 9.1
51 | TTTTTTTTTTTTTGATGTACAATTAATATTATAAAA [XGTACX_site6969] | 7.04
52 | ATTTCTTTTTTATTGAGTACATATGACCATGTTCAA [XGTACX_site5365] | 7.38
53 | CATTTTAAAGAAAATACACACAAAAATAGATATATA [CACACA_site6773] | 6.86
54 | AGTAATAAATAATTTACACACATATTATATCATCAC [CACACA_site1890] | 7.02
55 | GAAAAAAATGAAATTAGTACTTATCTTAAATTTTTA [XGTACX_site1018] | 6.74
56 | AAAAATATATAATAAAGTACACATAAATGAATAAAT [XGTACX_site329] | 7.12
57 | TTTTCCCTCTTATTCACACAAAAAAAATAAAATAAA [CACACA_site4656] | 7.25
